The test system of one assay is HSkMC. The assay is described as follows: cytotoxicity call (relative viability < 0.9). The note with it: 10 µM.
In a further assay the test system is S. aureus RN4220. Description: growth inhibition call (relative growth <= 0.2). As to conditions: 50 µM.

The list shows a part of the results.

As to `C[C@@H]1CN([C@H](C)CO)C(=O)c2cc(C#Cc3ccncc3)cnc2O[C@@H]1CN(C)S(=O)(=O)c1ccccc1F`, the cytotoxicity call with HSkMC is “inactive”. In addition, the growth inhibition call with S. aureus RN4220 was “inactive”.
For `CO[C@H]1CN(C)C(=O)c2ccc(NC(=O)C3CC3)cc2OC[C@H](C)N(C(=O)Cc2ccccn2)C[C@@H]1C`, the cytotoxicity call in the assay on HSkMC is “inactive”. Also, the growth inhibition call in the assay with S. aureus RN4220 is “inactive”.
Take `C[C@@H]1[C@@H]([Si](C)(C)F)[C@H](CCO)O[C@@]12C(=O)N(Cc1cccc(N3C(=O)c4cccc5cccc3c45)c1)c1ccccc12`: the cytotoxicity call in the assay on HSkMC is “inactive”. Also, the growth inhibition call in the assay with S. aureus RN4220 was “inactive”.
`C[C@@H]1CCCCO[C@@H](CN(C)C(=O)NC2CCCCC2)[C@H](C)CN([C@H](C)CO)C(=O)c2cc(NS(=O)(=O)c3ccc(Cl)cc3)ccc2O1`: the cytotoxicity call in the assay on HSkMC is “inactive”. For the same compound, the growth inhibition call with S. aureus RN4220 was “inactive”.
Turning to `COc1ccc(S(=O)(=O)N(C)C[C@@H]2OCCCC[C@H](C)Oc3ccc(NC(=O)Nc4ccc(C(F)(F)F)cc4)cc3C(=O)N([C@@H](C)CO)C[C@H]2C)cc1`, the cytotoxicity call in the assay on HSkMC is “inactive”. For the same compound, the growth inhibition call with S. aureus RN4220 is “inactive”.
Turning to `C[C@H]1CN([C@@H](C)CO)C(=O)Cc2cc(NC(=O)Nc3ccc(C(F)(F)F)cc3)ccc2O[C@H]1CN(C)C(=O)Nc1ccc2c(c1)OCO2`, the cytotoxicity call with HSkMC was “inactive”. The growth inhibition call with S. aureus RN4220 is “inactive”.
As for `C[C@@H]1CN([C@@H](C)CO)C(=O)c2cccc(NC(=O)Nc3ccccc3)c2O[C@@H]1CN(C)S(=O)(=O)c1cn(C)cn1`, the cytotoxicity call in the assay with HSkMC was “inactive”. Moreover, the growth inhibition call in the assay with S. aureus RN4220 was “inactive”.
With `O=C(C[C@@H]1CC[C@H]2[C@@H](COC[C@H](O)CN2S(=O)(=O)c2cccc(F)c2)O1)NCc1ccc(Cl)c(Cl)c1`, in the assay with HSkMC, the cytotoxicity call is “inactive”. In the assay with S. aureus RN4220, the growth inhibition call was “inactive”.
As for `C[C@@H]1CN([C@@H](C)CO)C(=O)c2cc(NC(=O)Nc3ccccc3)ccc2O[C@@H](C)CCCCO[C@H]1CN(C)Cc1ccncc1`, the cytotoxicity call in the assay with HSkMC was “inactive”. Further, the growth inhibition call with S. aureus RN4220 was “inactive”.
Consider `C[C@@H]1CCCCO[C@@H](CN(C)C(=O)NC2CCCCC2)[C@@H](C)CN([C@H](C)CO)C(=O)c2cc(NC(=O)c3ccncc3)ccc2O1`, for which the cytotoxicity call in the assay with HSkMC was “inactive”. The growth inhibition call in the assay on S. aureus RN4220 was “inactive”.
Regarding `Cc1ccc(S(=O)(=O)Nc2ccc3c(c2)C(=O)N([C@@H](C)CO)C[C@@H](C)[C@@H](CN(C)C(=O)C2CCCCC2)OCCCC[C@H](C)O3)cc1`, in the assay on HSkMC, the cytotoxicity call was “inactive”. Also, the growth inhibition call in the assay on S. aureus RN4220 is “inactive”.
On to `C[C@@H]1CN([C@H](C)CO)C(=O)c2cc(NS(=O)(=O)c3ccccc3)ccc2O[C@H]1CN(C)C(=O)Nc1cccc2ccccc12`, for which the cytotoxicity call in the assay on HSkMC is “inactive”. In the assay with S. aureus RN4220, the growth inhibition call was “inactive”.
For the compound `C[C@@H]1CCCCO[C@H](CN(C)C(=O)Nc2ccc(C(F)(F)F)cc2)[C@H](C)CN([C@H](C)CO)C(=O)c2cc(NS(=O)(=O)c3cn(C)cn3)ccc2O1`, in the assay with HSkMC, the cytotoxicity call is “inactive”. Further, in the assay with S. aureus RN4220, the growth inhibition call was “inactive”.
In the case of `Cc1ccc(S(=O)(=O)Nc2ccc3c(c2)C(=O)N([C@H](C)CO)C[C@H](C)[C@@H](CN(C)Cc2ccc(Oc4ccccc4)cc2)O3)cc1`, the cytotoxicity call in the assay on HSkMC is “inactive”. Also, in the assay on S. aureus RN4220, the growth inhibition call was “inactive”.
Turning to `C[C@H](CO)N1C[C@H](C)[C@H](CN(C)S(=O)(=O)c2ccc(F)cc2)Oc2ccc(NC(=O)c3ccncc3)cc2C1=O`, the cytotoxicity call in the assay on HSkMC was “inactive”. For the same compound, in the assay on S. aureus RN4220, the growth inhibition call is “inactive”.
As for `C[C@@H]1CN([C@H](C)CO)C(=O)c2cc(NC(=O)C3CCCCC3)ccc2O[C@@H](C)CCCCO[C@H]1CN(C)S(=O)(=O)c1ccc(F)cc1`, the cytotoxicity call in the assay on HSkMC is “inactive”. Further, the growth inhibition call in the assay with S. aureus RN4220 was “inactive”.
Consider `O=C([C@H]1CCCCN1)N1CCCC1`, for which the cytotoxicity call with HSkMC is “inactive”. Besides, the growth inhibition call with S. aureus RN4220 is “inactive”.
As for `C[C@H](CO)N1C[C@H](C)[C@H](CN(C)S(=O)(=O)c2cn(C)cn2)Oc2c(NS(=O)(=O)c3cn(C)cn3)cccc2C1=O`, in the assay on HSkMC, the cytotoxicity call is “inactive”. For the same compound, the growth inhibition call in the assay on S. aureus RN4220 is “inactive”.
On to `C[C@@H]1CN([C@@H](C)CO)C(=O)c2cccc(NS(=O)(=O)c3ccc(F)cc3)c2O[C@@H]1CN(C)S(=O)(=O)c1cccs1`, for which, in the assay with HSkMC, the cytotoxicity call is “inactive”. In addition, the growth inhibition call in the assay on S. aureus RN4220 was “inactive”.
Turning to `Cc1ccc(O)c(C(C)(C)C)c1`, in the assay with HSkMC, the cytotoxicity call was “inactive”. For the same compound, the growth inhibition call in the assay with S. aureus RN4220 is “inactive”.
With `Cn1c(=O)c2c(ncn2CCNC2=NCCC2)n(C)c1=O`, the cytotoxicity call in the assay on HSkMC is “inactive”. In the assay with S. aureus RN4220, the growth inhibition call is “inactive”.
Regarding `C[C@@H]1CN([C@H](C)CO)C(=O)Cc2cc(NC(=O)C3CC3)ccc2O[C@H]1CN(C)Cc1ccc2c(c1)OCO2`, the cytotoxicity call with HSkMC is “inactive”. In addition, the growth inhibition call in the assay on S. aureus RN4220 was “inactive”.
For the compound `C[C@@H]1CN([C@@H](C)CO)C(=O)CCCn2nncc2CO[C@H]1CN(C)Cc1ccc2c(c1)OCCN2C`, the cytotoxicity call in the assay with HSkMC was “inactive”. The growth inhibition call in the assay with S. aureus RN4220 is “inactive”.
`CNC(=O)C[C@H]1CC[C@@H]2[C@H](COC[C@H](O)CN2C(=O)Nc2cccc(OC)c2)O1`: the cytotoxicity call in the assay with HSkMC is “inactive”. Moreover, the growth inhibition call in the assay with S. aureus RN4220 was “inactive”.
As to `C[C@H](CO)N1C[C@H](C)[C@@H](CN(C)S(=O)(=O)c2ccccc2F)Oc2ncc(C#Cc3ccncc3)cc2C1=O`, in the assay with HSkMC, the cytotoxicity call is “inactive”. Also, the growth inhibition call with S. aureus RN4220 is “inactive”.
As for `CCNC(=O)C[C@H]1CC[C@@H]2[C@H](COC[C@@H](O)CN2C(=O)Nc2c(C)noc2C)O1`, the cytotoxicity call with HSkMC was “inactive”. In the assay with S. aureus RN4220, the growth inhibition call was “inactive”.
Consider `CC(C)NC(=O)N(C)C[C@@H]1OCCCC[C@H](C)Oc2ccc(NC(=O)Nc3ccc(F)cc3)cc2C(=O)N([C@@H](C)CO)C[C@H]1C`, for which the cytotoxicity call with HSkMC is “inactive”. Moreover, the growth inhibition call with S. aureus RN4220 was “inactive”.
Regarding `C[C@@H]1CN([C@@H](C)CO)C(=O)c2cccc(NC(=O)Nc3cccc4ccccc34)c2O[C@@H]1CN(C)S(=O)(=O)c1cccs1`, in the assay with HSkMC, the cytotoxicity call is “inactive”. In addition, the growth inhibition call in the assay with S. aureus RN4220 was “inactive”.
With `COc1ccc(CN(C)C[C@H]2OCCCC[C@H](C)Oc3ccc(NS(=O)(=O)c4ccc(OC)cc4)cc3C(=O)N([C@@H](C)CO)C[C@@H]2C)cc1`, in the assay on HSkMC (human skeletal muscle cells), the cytotoxicity call was “inactive”. For the same compound, in the assay on S. aureus RN4220, the growth inhibition call is “inactive”.

Values taken from the antibiotic and cytotoxicity screens of Wong et al. (2023).
